Test results taken from the supplement of paper PMC8728848.
This is one part of a sample in which the strongest signals are shown more often than they occur.

How the values were obtained:
Experiment in all cases: glycan array binding signal (z-score within array); higher = stronger binding
Conditions in all cases: glycan notation: IUPAC condensed, linker removed
[1] = target: Fuc(a1-2)Gal(b1-3)GalNAc(b1-3)Gal
Outline: (§1)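 From the Consortium for Functional Glycomics database, 3228 arrays were curated, keeping only those whose protein sequence was available. Binding is given as a within-array Z-score averaged across arrays sharing a protein sequence and across linkers. Negative Z-scores can be read as non-binding.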

[2] = target: Fuc(a1-2)Gal(b1-3)GalNAc(b1-3)Gal(a1-4)Gal(b1-4)Glc
Outline: as §1

[3] = target: Fuc(a1-2)Gal(b1-3)GalNAc(b1-3)Gal(b1-4)Glc
Outline: as §1

[4] = target: Fuc(a1-2)Gal(b1-3)GalNAc(b1-4)[Neu5Ac(a2-3)]Gal(b1-4)Glc
Outline: as §1

[5] = target: Fuc(a1-2)Gal6S(b1-4)GlcNAc
Outline: as §1

[6] = target: Fuc(a1-2)[GalNAc(a1-3)]Gal(b1-4)GlcNAc
Outline: as §1

[7] = target: Fuc(a1-2)[GalNAc(a1-4)]Gal(b1-4)GlcNAc
Outline: as §1

Fuc(a1-3)GlcNAc = target: Fuc(a1-3)GlcNAc
Outline: as §1

Fuc(b1-3)GlcNAc = target: Fuc(b1-3)GlcNAc
Outline: as §1

Gal(a1-6)Glc = target: Gal(a1-6)Glc
Outline: as §1

[8] = target: Gal(b1-3)[Fuc(a1-4)]GlcNAc(b1-3)Gal(b1-4)GlcNAc
Outline: as §1

[9] = target: Gal(b1-3)[Fuc(a1-4)]GlcNAc(b1-3)Gal(b1-4)[Fuc(a1-3)]GlcNAc
Outline: as §1

[10] = target: Gal(b1-3)[GlcNAc(b1-6)]GalNAc
Outline: as §1

Gal(b1-4)Glc6S = target: Gal(b1-4)Glc6S
Outline: as §1

Gal6S(b1-4)Glc = target: Gal6S(b1-4)Glc
Outline: as §1

[11] = target: GlcNAc(b1-2)Gal(b1-3)GlcNAc
Outline: as §1

GlcNAc(b1-3)Gal = target: GlcNAc(b1-3)Gal
Outline: as §1

[12] = target: Man(a1-2)Man(a1-2)Man(a1-3)[Man(a1-2)Man(a1-3)[Man(a1-2)Man(a1-6)]Man(a1-6)]Man(b1-4)GlcNAc(b1-4)GlcNAc
Outline: as §1

Man(b1-4)GlcNAc = target: Man(b1-4)GlcNAc
Outline: as §1

Neu5Ac(a2-3)Gal(b1-4)Glc = target: Neu5Ac(a2-3)Gal(b1-4)Glc
Outline: as §1

[13] = target: Neu5Ac(a2-3)Gal(b1-4)GlcNAc(b1-3)Gal(b1-4)GlcNAc
Outline: as §1

[14] = target: Neu5Ac(a2-3)[GalNAc(b1-4)]Gal(b1-4)Glc
Outline: as §1

B1: SLex-MBP-2 (Rattus norvegicus) (protein)
chain: MLLLPLLVLLCVVSVSSSGSQTCEETLKTCSVIACGRDGRDGPKGEKGEPGQGLRGLQGPPGKLGPPGSVGAPGSQGPKGQKGDRGDSRAIEVKLANMEAEINTLKSKLELTNKLHAFSMGKKSGKKFFVTNHERMPFSKVKALCSELRGTVAIPRNAEENKAIQEVAKTSAFLGITDEVTEGQFMYVTGGRLTYSNWKKDEPNDGGSGEDCYIKREKDNGLWNDISCQKKKTAVCEFPA
glycan array binding signal (z-score) [1]: 0.35 | glycan array binding signal (z-score) [2]: 0.001 | glycan array binding signal (z-score) [3]: -0.354 | glycan array binding signal (z-score) [4]: -0.209 | glycan array binding signal (z-score) [5]: -0.191 | glycan array binding signal (z-score) [6]: -0.131 | glycan array binding signal (z-score) [7]: -0.176 | glycan array binding signal (z-score) (Fuc(a1-3)GlcNAc): -0.346 | glycan array binding signal (z-score) (Fuc(b1-3)GlcNAc): 0.063 | glycan array binding signal (z-score) (Gal(a1-6)Glc): 1.32 | glycan array binding signal (z-score) [8]: -0.224 | glycan array binding signal (z-score) [9]: -0.205 | glycan array binding signal (z-score) [10]: -0.249 | glycan array binding signal (z-score) (Gal(b1-4)Glc6S): -0.097 | glycan array binding signal (z-score) (Gal6S(b1-4)Glc): 0.239 | glycan array binding signal (z-score) [11]: 0.612 | glycan array binding signal (z-score) (GlcNAc(b1-3)Gal): -0.179 | glycan array binding signal (z-score) [12]: 2.85 | glycan array binding signal (z-score) (Man(b1-4)GlcNAc): 1.26 | glycan array binding signal (z-score) (Neu5Ac(a2-3)Gal(b1-4)Glc): 3.29 | glycan array binding signal (z-score) [13]: 0.183 | glycan array binding signal (z-score) [14]: -0.271
